# Screen size: about 360,000 compounds; about 7,500 (2.1%) were called active. Not shown: some 20% with an inconclusive outcome. Calls follow the shape of the dose curve; as a rule, active = well fitted inhibition curve with a large enough effect; inconclusive = small, poorly fitted or top-dose-only effect, or effect the other way; inactive = flat fitted curve, though single readings scatter. Only a part is listed here, and it is no random draw. A structure can be active in one record and inactive in another.
# Test: Nrf2 qHTS screen for inhibitors; also: nearly all actives have a fitted effect of over 60% in size
# Conditions: A549 ARE-Fluc reporter, luciferase luminescence, 18-24 h; series mostly up to 46 µM; activity change, negative = inhibition: at the top concentration
# Source text: NIH Molecular Libraries Probe Production Network [MLPCN]
# NIH Chemical Genomics Center [NCGC]
# Assay Provider: Shyam Biswal, Johns Hopkins University
# Nrf2 is a transcription factor that maintains cellular redox homoestasis and protects cells from xenobiotics. Nrf2 binds to the antioxidant response element (ARE) to induce gene expression of a broad spectrum of genes that encode for antioxidants. […] Finding a small molecule that act as an inhibitor of Nrf2 function would represent a novel therapeutic target that could lead to improvement in survival of patients undergoing chemo- and/or radio- therapy.
# This is the Nrf2 activity measured in the luminescent read.
# 1. Shibata, T., et al., Genetic Alteration of Keap1 Confers Constitutive Nrf2 Activation and Resistance to Chemotherapy in Gallbladder Cancer. Gastroenterology, 2008.
# 2. Sjoblom, T., et al., The consensus coding sequences of human breast and colorectal cancers. Science, 2006. 314(5797): p. 268-74.
# NCGC Assay Protocol Summary:
# A concentration-response assay was performed with A549 ARE_Fluc cells which are suspended in 5% FBS OPTI-MEM. Five uL were dispensed into 1536-well white TC-treated plate using the Kalypsys dispenser to achieve a density of 5000 cells/well in all columns except column 1. The plate is incubated at 37deg C at 5% CO2 for 2 hours before 23 nL of compounds are added with the Kalypsys pin tool equipped with a 1,536-pin array containing 10-nL slotted pins (FP1S10, 0.457-mm diameter, 50.8 mm long; V&P Scientific). The control compounds Budesonide and Staurosporine are both added at a concentration of 2mM and Budesonide is also added as a 1:10 titration, starting at 200uM, to achieve dose-response. After an 18-24 hour incubation at 37deg C at 5% CO2, 5ul of medium is added to column 1. Afterwards 1ul of 5x of CellTiter-Fluor (Promega) is added to every well. The plate is then incubated at 37deg C at 5% CO2 for 30 minutes before they are read on the ViewLux (Perkin Elmer) for a fluorescent read Ex=405(10)/Em=525(10) for a 3 second exposure, 2x binning, and high gain. Then 3 uL of 3x BugLite is dispensed into all wells and the plate is incubated at ambient room temperature for 15 minutes. Afterwards another ViewLux read is performed using the clear filter to get a luminescent read with the settings of 40 second exposure, 2x binning, and high gain. Cytotoxicity is assessed through the first fluorescent read and then biochemical activity against Nrf2 is measured in the luminescent read.
# % is scaled to controls: 0 for no effect and ±100 for the full control effect; potency is read from the fitted curve at half-maximal effect.
Compound,"activity change, negative = inhibition",Potency
Cc1ccc(N(C)C(=O)CCS(=O)(=O)c2cc3c(cc2Cl)NC(=O)CO3)cc1,inactive: -10.1%,–
CC(C)Cn1c(N)c(C(=O)COC(=O)/C=C/c2ccccc2)c(=O)n(C)c1=O,–,active: 6.51 µM
COc1ccc(NC(=O)C2=CC(c3ccco3)=NS(=O)(=O)N2C)cc1,inactive: -20.9%,–
O=c1cc(-c2ccc(O)cc2)oc2cc(O)c([C@@H]3O[C@H](CO)[C@@H](O)[C@H](O)[C@H]3O)c(O)c12,inactive: -2.86%,–
CCOc1ccccc1NC(=O)CSc1nncc2ccccc12,–,active: 23.1 µM
CC(C)c1nnc(NC(=O)c2nc(S(=O)(=O)Cc3ccccc3)ncc2Cl)s1,inactive: 3.65%,–
Cc1onc(-c2c(Cl)cccc2Cl)c1C(=O)N[C@@H]1C(=O)N2[C@@H]1SC(C)(C)[C@@H]2C(=O)O,inactive: 2.26%,–
CCCOc1ccc(CNC(=O)C2CCN(c3nn4c(=O)cc(C)nc4s3)CC2)cc1,inactive: 22%,–
CC1CCc2cc(F)ccc2N1C(=O)CSc1nnc2c(n1)[nH]c1ccc(F)cc12 (configuration not stated),–,active: 20.6 µM
Cn1c2ccc(F)cc2c2nnc(SCCN3CCCCC3)nc21,inactive: -17.9%,–
O=C(NC(Cc1ccccc1)C(=O)O)/C(=C\c1ccc(Cl)cc1)NC(=O)c1ccco1 (configuration not stated),inactive: 4.3%,–
Cc1cn(C2C=CC(CO)O2)c(=O)[nH]c1=O (configuration not stated),inactive: 11.4%,–
CCCc1ccc(NC(=O)C2CCN(c3cnccn3)CC2)cc1,inactive: -14.6%,–
COc1ccc(S(=O)(=O)Cc2ccc(C(=O)NC3CCCCC3)o2)cc1,inactive: 4.69%,–
CN=C1S/C(=C/c2cn(CC(=O)OC)c3ccccc23)C(=O)N1C,inactive: 0.146%,–
Cc1cnc(NC(=O)C2CC(=O)N(c3cccc(Cl)c3)C2)s1 (configuration not stated),–,active: 2.06 µM
COCCCNC(=S)Nc1cccc2ncccc12,–,active: 13 µM
Cc1nc2c3ccccc3nc(NNC(=O)CCC(=O)N3CCN(c4ccccc4)CC3)n2n1,inactive: 2.41%,–
c1ccc2[nH]c(-c3ccnc4ccccc34)nc2c1,inactive: 0.457%,–
CCOc1ccc(CNC(=O)c2cc3oc4ccccc4c3n2C)cc1,inactive: 28.1%,–
CCC(CC)c1nnc(NC(=O)c2cccc(S(=O)(=O)N3CCc4ccccc43)c2)s1,–,active: 20.6 µM
O=C1[C@H](Cc2ccccc2)NCC=CC[C@@H](c2ccc(Cl)cc2)N1Cc1ccccc1,inactive: 3.08%,–
C[C@H]1CCC[C@]2(O[C@@H](CCO)C[C@H](O)[C@H]2O)O1,inactive: 11.6%,–
CCN1C(=O)[C@@H]2[C@@H](c3ccc(-c4ccccc4)cc3)N3CCC[C@@]3(C(=O)OC)[C@@H]2C1=O,inactive: 4.43%,–
CCN(CC)c1cc(C)c2cc(NC(=O)c3ccccc3OC)ccc2n1,inactive: -8.94% [at 9.27 µM],–
O=C(Nc1nc(-c2cccs2)cs1)c1ccc(S(=O)(=O)N2CCCCC2)cc1,–,active: 20.6 µM

Compound,"activity change, negative = inhibition",Potency
O=C(C1=C[C@H](c2ccc(Br)cc2)C[C@H](OCCCCO)O1)N1CCN(Cc2ccccc2)CC1,inactive: -0.524%,–
COC(=O)/C(=C\c1c[nH]c2ccccc12)NC(C)=O,inactive: -1.85%,–
CCC(=O)NCc1cc(-c2nn(C)c(=O)c3ccccc23)ccc1OC,inactive: -4.14%,–
O=C1Nc2ccccc2C1=Nc1ccc(-c2nnc3n2CCCCC3)cc1,inactive: 0.382%,–
N#C/C(=C\c1cccc([N+](=O)[O-])c1)c1nnc2n1CCCCC2,inactive: 1.29%,–
COc1cc(NC(=O)c2ccccc2)ccc1NC(=O)c1cc2ccccc2o1,inactive: 3.78%,–
C[C@@H]1CCC[C@@]2(O[C@H](CCO)C[C@H](O)[C@H]2O)O1,inactive: -18.3%,–
COc1ccccc1N(CC(=O)NCCSCc1ccccc1)S(=O)(=O)c1ccc(C)cc1,inactive: -21.7%,–
Cc1cc(C)cc(OCC(=O)NCCc2nc3ccccc3[nH]2)c1,inactive: -6.75%,–
CCOC(=O)c1cc2c(=O)n3ccccc3nc2n(CCOC)c1=NC(=O)c1c(-c2c(F)cccc2Cl)noc1C,inactive: 0% [at 9.27 µM],–
OCC1OC(n2cnc3c(NCc4ccccc4O)ncnc32)C(O)C1O (configuration not stated),–,active: 18.4 µM
C=CCC[C@@H](Cc1ccc(F)cc1)C(=O)OC[C@H](Cc1c[nH]c2ccccc12)NC(=O)[C@@H](CC=C)CC(=O)NCCO,inactive: 9.37%,–
C=CC[C@@H](CC(=O)N[C@H](CO)Cc1ccccc1)C(=O)NC[C@H](OC(=O)[C@@H](CC=C)Cc1ccc(F)cc1)c1ccccc1,inactive: -12.3%,–
Cc1cc(C)c(NC(=O)Cn2nnc(C(=O)NCc3cccs3)c2N)c(C)c1,inactive: -4.7% [at 9.27 µM],–
Cn1c(/C=C/c2ccc(Cl)cc2Cl)c([N+](=O)[O-])c(=O)n(C)c1=O,–,active: 25.9 µM
CC(C)NC(=O)/C(C#N)=C/c1ccc(N(C)C)o1,inactive: 4%,–
COC(=O)CCN(c1ccccc1)S(=O)(=O)c1cc(-c2cc(C)no2)ccc1OC,inactive: 25.7%,–
O=C(Nc1cccnc1Cl)c1cc(-c2cccc(Cl)c2)on1,inactive: 9.96%,–
CCOc1ccc(NC(=O)Cn2cc(C(=O)c3ccco3)c3ccccc32)cc1,inactive: -19.2%,–
CCO[C@@H]1OC(C(=O)NCc2nc3ccccc3[nH]2)=C[C@H](c2cn(C(C)=O)c3ccccc23)[C@H]1CCCO,inactive: -22.6%,–
O=C(Cn1c(=O)c2cccn2c2ccccc21)NCCc1ccccc1,inactive: 7.19%,–
COc1cccc(-c2nn3c(-c4cc(C)[nH]n4)nnc3s2)c1,inactive: -16.3%,–
COc1ccc(NC(=O)CNC(=O)Cn2c(C)cc3ccccc3c2=O)cc1OC,inactive: -18.7% [at 9.27 µM],–
COc1ccc(Nc2ncc(C(=O)N3CCN(c4ccc(F)cc4)CC3)c3ccccc23)cc1,inactive: -4.53% [at 9.27 µM],–
CC(=O)N1CCCC1C(=O)O (configuration not stated),inactive: -2.44%,–
Cc1nc2scc(C)n2c(=O)c1S(=O)(=O)N1CCN(c2cccc(C(F)(F)F)c2)CC1,inactive: -14.4%,–

# Reference: PubChem BioAssay AID504444 (National Center for Advancing Translational Sciences (NCATS), 2011)
